For part of its entries the source gives two or more results. This is not the full list of results. An entry can have further records. The records of an entry seem to repeat one measurement on other runs, samples or individuals.
Target: human Gal-1 (hGal-1) (Homo sapiens, UniProt P09382)
Test: Competitive binding assay: biotinylated hGal-1 binding to microplate-adsorbed asialofetuin (ASF), spectrophotometric
Details: hGal-1 binding to asialofetuin; Table 15; R and S epimers of selected Examples also listed; read-out: IC50 (Galectin-1 inhibition)
Method: Biological Assay Evaluation of Compound Inhibitory Activity (IC50)
The inhibitory activity of compounds is determined in competitive binding assays. This spectrophotometric assay measures the binding of biotinylated human Gal-3 (hGal-3) or human Gal-1 (hGal-1), respectively, to a microplate-adsorbed glycoprotein, asialofetuin (ASF) (Proc Natl Acad Sci USA. 2013 Mar. 26; 110(13):5052-7.).
Briefly, compounds are serially diluted in DMSO (working dilutions). ASF-coated 384well plates are supplemented with 22.8 μL/well of biotinylated hGal-3 or hGal-1 in assay buffer (i.e. 300-1000 ng/mL biotinylated hGal-3 or hGal-1) to which 1.2 μL of compound working dilutions are added and mixed.
Plates are incubated for 3 hours at 4° C., then washed with cold assay buffer (3×50 uL), incubated for 1 hour with 25 μL/well of a streptavidin-peroxidase solution (diluted in assay buffer to 80 ng/mL) at 4° C., followed by further washing steps with assay buffer (3×50 uL). Finally, 25 μL/well of ABTS substrate is added.
The calculated IC50 values may fluctuate depending on the daily assay performance. Fluctuations of this kind are known to those skilled in the art. IC50 values from several measurements are given as mean values.

Sequence of human Gal-1 (hGal-1) (P09382 whole entry): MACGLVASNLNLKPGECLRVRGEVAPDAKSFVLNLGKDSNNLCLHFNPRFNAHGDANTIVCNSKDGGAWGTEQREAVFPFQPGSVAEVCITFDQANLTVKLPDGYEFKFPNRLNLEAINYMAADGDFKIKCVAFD

IC50: 60 nM and 11 µM [one table]
SMILES: CCN(C(=O)C(S[C@@H]1O[C@H](CO)[C@H](O)[C@H](n2cc(-c3cc(F)c(F)c(F)c3)nn2)[C@H]1OC)C1(O)CCC(F)(F)CC1)C1CC1 (stereo partly shown) [Example 2.44.238.I.]

Reference: patent US12410208B2, “(2-acetamidyl)thio-beta-D-galactopyranoside derivatives” (Idorsia Pharmaceuticals Ltd, priority 2020, dated 2025)
